Results: publication PMC5426369
No constants are given. Whether binding was seen depends on the method and setting. Binding seen in cells or lysates may run through a third protein. Some results given as binding are weak or reduced against the parent protein; the word gives no strength.

Sequences of proteins named here, by UniProt entry; tags and fusion partners are left off.
UniProt P45592: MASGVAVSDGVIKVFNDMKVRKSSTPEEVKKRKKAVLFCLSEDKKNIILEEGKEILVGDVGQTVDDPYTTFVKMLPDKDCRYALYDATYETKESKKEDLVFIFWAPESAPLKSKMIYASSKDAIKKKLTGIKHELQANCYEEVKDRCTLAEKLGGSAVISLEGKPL
UniProt P11275: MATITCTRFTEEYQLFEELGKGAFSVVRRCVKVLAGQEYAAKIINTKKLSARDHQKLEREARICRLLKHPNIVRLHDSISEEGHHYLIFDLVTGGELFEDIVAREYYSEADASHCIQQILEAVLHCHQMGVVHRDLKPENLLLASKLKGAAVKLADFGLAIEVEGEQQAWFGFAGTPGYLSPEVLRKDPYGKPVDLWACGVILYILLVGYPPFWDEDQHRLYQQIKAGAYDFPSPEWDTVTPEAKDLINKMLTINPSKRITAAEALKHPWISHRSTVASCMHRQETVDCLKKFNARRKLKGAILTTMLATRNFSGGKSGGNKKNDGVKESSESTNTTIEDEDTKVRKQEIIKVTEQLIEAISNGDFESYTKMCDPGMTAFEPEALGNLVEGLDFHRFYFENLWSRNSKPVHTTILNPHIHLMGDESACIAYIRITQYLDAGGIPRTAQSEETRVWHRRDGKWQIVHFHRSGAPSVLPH
UniProt P08413: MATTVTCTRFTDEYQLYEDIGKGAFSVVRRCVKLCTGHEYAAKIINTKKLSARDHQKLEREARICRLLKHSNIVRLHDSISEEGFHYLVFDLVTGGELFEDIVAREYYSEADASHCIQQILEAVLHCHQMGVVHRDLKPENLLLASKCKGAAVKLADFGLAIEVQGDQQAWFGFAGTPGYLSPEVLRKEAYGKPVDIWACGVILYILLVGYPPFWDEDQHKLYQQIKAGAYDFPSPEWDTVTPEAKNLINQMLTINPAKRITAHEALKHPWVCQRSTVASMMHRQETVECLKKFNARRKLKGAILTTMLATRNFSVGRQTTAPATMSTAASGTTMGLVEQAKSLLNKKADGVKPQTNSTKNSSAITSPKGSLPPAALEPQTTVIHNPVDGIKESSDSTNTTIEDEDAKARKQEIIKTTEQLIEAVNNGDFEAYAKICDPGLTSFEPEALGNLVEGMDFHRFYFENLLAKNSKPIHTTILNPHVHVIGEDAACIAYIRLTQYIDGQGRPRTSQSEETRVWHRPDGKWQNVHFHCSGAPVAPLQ

Key:
[1] = biological target: T1, Activity-regulated cytoskeleton-associated protein (Arc), unmodified 50 kDa, endogenous (rat (endogenous in dentate gyrus)) (UniProt Q63053); experiment: co-IP; native proteins from pooled rat dentate gyrus cytoskeletal fractions (subcellular fractionation kit; HFS-treated and control); immunoblot
T1 sequence: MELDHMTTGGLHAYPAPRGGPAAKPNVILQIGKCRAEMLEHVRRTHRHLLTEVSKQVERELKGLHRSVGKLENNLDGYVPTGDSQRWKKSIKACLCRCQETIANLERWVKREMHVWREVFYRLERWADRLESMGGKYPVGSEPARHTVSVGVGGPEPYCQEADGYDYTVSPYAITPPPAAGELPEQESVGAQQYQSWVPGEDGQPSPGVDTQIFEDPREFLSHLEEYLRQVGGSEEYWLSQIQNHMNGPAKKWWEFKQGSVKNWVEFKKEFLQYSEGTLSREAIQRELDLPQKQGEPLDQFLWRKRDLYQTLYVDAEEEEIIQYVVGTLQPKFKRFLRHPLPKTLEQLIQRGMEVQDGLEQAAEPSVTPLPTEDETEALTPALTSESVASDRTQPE

[2] = biological target: T1, Activity-regulated cytoskeleton-associated protein (Arc), unmodified 50 kDa, endogenous (rat (endogenous in dentate gyrus)); experiment: co-IP; native proteins from rat dentate gyrus lysate (HFS-treated, contralateral control or naive); antibody on protein G-agarose or protein A/G magnetic beads, 4°C, 20 mM Hepes pH 7.4, 137 mM NaCl, 1 mM EDTA, 0.5% NP-40, 20 mM NEM; immunoblot

cofilin 1, endogenous (from UniProt P45592 1-166)
binding [1]: no binding

calcium/calmodulin-dependent protein kinase II-alpha (CaMKIIα), endogenous (from UniProt P11275 1-478)
binding [2]: binds

calcium/calmodulin-dependent protein kinase II-beta (CaMKIIβ), endogenous (from UniProt P08413 1-542)
binding [2]: binds
